Results are given in words; binding and its absence hold for the method and conditions named. Binding seen in cells or lysates may run through a third protein. Some binding calls cover weakened binding; strength is not graded here. For part of these data: Tags and fused reporters may be left off the sequences shown.
Tests used:
Myc-OTUB1 (human) = Myc-OTUB1 (human) (UniProt Q96FW1); experiment: co-IP; HEK293T cells cotransfected with tagged plasmids for 24 h; anti-Myc, anti-HA or anti-Flag antibody-conjugated agarose beads; immunoblot
[1] = target: endogenous OTUB1 (H1299 cells) (human (endogenous in H1299)) (UniProt Q96FW1); experiment: co-IP; endogenous proteins in H1299 cells; anti-OTUB1 antibody for immunoprecipitation, normal rabbit IgG and OTUB1-deficient cells as controls; blot with anti-SET7
GST-tagged OTUB1 (human) = GST-tagged OTUB1 (human) (UniProt Q96FW1); experiment: pull-down; GST pull-down in vitro; GST-tagged OTUB1 proteins and His-tagged SET7 each expressed in E. coli (BL21); detected with anti-His antibody
[2] = target: GST-tagged OTUB1-K122R (human) (UniProt Q96FW1); experiment: as above
[3] = target: Flag-OTUB1-C (81–271 aa) (human) (UniProt Q96FW1); experiment: co-IP; HEK293T cells cotransfected with tagged plasmids for 24 h; anti-Myc, anti-HA or anti-Flag antibody-conjugated agarose beads; immunoblot
[4] = target: Flag-OTUB1-N (1–80 aa) (human) (UniProt Q96FW1); experiment: as above

Sequences of proteins named here, by UniProt entry; tags and fusion partners are left off. A change or cut given only in a name is not applied to a line headed by its entry. Residues count along the entry.
UniProt Q96FW1: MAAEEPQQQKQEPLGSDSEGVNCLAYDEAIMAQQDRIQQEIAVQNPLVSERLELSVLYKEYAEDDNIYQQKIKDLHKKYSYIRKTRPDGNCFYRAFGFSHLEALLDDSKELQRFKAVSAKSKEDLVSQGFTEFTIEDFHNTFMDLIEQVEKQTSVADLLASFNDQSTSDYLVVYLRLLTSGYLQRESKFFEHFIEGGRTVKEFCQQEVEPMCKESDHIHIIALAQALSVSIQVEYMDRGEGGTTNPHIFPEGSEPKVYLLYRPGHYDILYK
Flag-OTUB1-N (1–80 aa): residues 1-80 of Q96FW1
Flag-OTUB1-C (81–271 aa): residues 81-271 of Q96FW1

B1: HA-SET7 (protein, UniProt Q8WTS6 1-366)
chain: MDSDDEMVEEAVEGHLDDDGLPHGFCTVTYSSTDRFEGNFVHGEKNGRGKFFFFDGSTLEGYYVDDALQGQGVYTYEDGGVLQGTYVDGELNGPAQEYDTDGRLIFKGQYKDNIRHGVCWIYYPDGGSLVGEVNEDGEMTGEKIAYVYPDERTALYGKFIDGEMIEGKLATLMSTEEGRPHFELMPGNSVYHFDKSTSSCISTNALLPDPYESERVYVAESLISSAGEGLFSKVAVGPNTVMSFYNGVRITHQEVDSRDWALNGNTLSLDEETVIDVPEPYNHVSKYCASLGHKANHSFTPNCIYDMFVHPRFGPIKCIRTLRAVEADEELTVAYGYDHSPPGKSGPEAPEWYQVELKAFQATQQK
- binding (Myc-OTUB1 (human)): binds

B2: endogenous SET7 (H1299 cells) (protein, UniProt Q8WTS6 1-366)
chain: MDSDDEMVEEAVEGHLDDDGLPHGFCTVTYSSTDRFEGNFVHGEKNGRGKFFFFDGSTLEGYYVDDALQGQGVYTYEDGGVLQGTYVDGELNGPAQEYDTDGRLIFKGQYKDNIRHGVCWIYYPDGGSLVGEVNEDGEMTGEKIAYVYPDERTALYGKFIDGEMIEGKLATLMSTEEGRPHFELMPGNSVYHFDKSTSSCISTNALLPDPYESERVYVAESLISSAGEGLFSKVAVGPNTVMSFYNGVRITHQEVDSRDWALNGNTLSLDEETVIDVPEPYNHVSKYCASLGHKANHSFTPNCIYDMFVHPRFGPIKCIRTLRAVEADEELTVAYGYDHSPPGKSGPEAPEWYQVELKAFQATQQK
- binding [1]: binds

B3: His-tagged SET7 (protein, UniProt Q8WTS6 1-366)
chain: MDSDDEMVEEAVEGHLDDDGLPHGFCTVTYSSTDRFEGNFVHGEKNGRGKFFFFDGSTLEGYYVDDALQGQGVYTYEDGGVLQGTYVDGELNGPAQEYDTDGRLIFKGQYKDNIRHGVCWIYYPDGGSLVGEVNEDGEMTGEKIAYVYPDERTALYGKFIDGEMIEGKLATLMSTEEGRPHFELMPGNSVYHFDKSTSSCISTNALLPDPYESERVYVAESLISSAGEGLFSKVAVGPNTVMSFYNGVRITHQEVDSRDWALNGNTLSLDEETVIDVPEPYNHVSKYCASLGHKANHSFTPNCIYDMFVHPRFGPIKCIRTLRAVEADEELTVAYGYDHSPPGKSGPEAPEWYQVELKAFQATQQK
- binding (GST-tagged OTUB1 (human)): binds
- binding [2]: binds

B4: Myc-SET7 (protein, UniProt Q8WTS6 1-366)
chain: MDSDDEMVEEAVEGHLDDDGLPHGFCTVTYSSTDRFEGNFVHGEKNGRGKFFFFDGSTLEGYYVDDALQGQGVYTYEDGGVLQGTYVDGELNGPAQEYDTDGRLIFKGQYKDNIRHGVCWIYYPDGGSLVGEVNEDGEMTGEKIAYVYPDERTALYGKFIDGEMIEGKLATLMSTEEGRPHFELMPGNSVYHFDKSTSSCISTNALLPDPYESERVYVAESLISSAGEGLFSKVAVGPNTVMSFYNGVRITHQEVDSRDWALNGNTLSLDEETVIDVPEPYNHVSKYCASLGHKANHSFTPNCIYDMFVHPRFGPIKCIRTLRAVEADEELTVAYGYDHSPPGKSGPEAPEWYQVELKAFQATQQK
- binding [3]: binds
- binding [4]: no binding

— article PMC10040876
